A collection of fitness landscapes (doi:10.1016/j.celrep.2020.107928)
The full ranking holds about 81,000 sequences; the median of “one-hybrid fitness for binding parS DNA” is about -0.17, and the highest 2% start at about 0.51. The list shows a part of the results.

B1: Caulobacter ParB omega fusion; a variant is named by its letters at X, in order, B8GW30 (parent)
chain: MESVVVGEPGMSEGRRGLGRGLSALLGEVDAAPAQAPGEQLGGSREAPIEILQRNPDQPRRTFREEDLEDLSNSIREKGVLQPILVRPSPDTAGEYQIVAGERAWRAAQRAGLKTVPIMVRELDDLAVLEIGIIENVQRADLNVLEEALSYKVLMEKFERTQENIAQTIGKSXSHVANXMRLLXLPDEVQSYLVSGELTAXHARAIAAAADPVALAKQIIEGGLSVRETEALARKAPNLSAGKSKGGRPPRVKDTDTQALESDLSSVLGLDVSIDHRGSTGTLTITYATLEQLDDLCNRLTRGI

Variants of: B1
Assay: one-hybrid fitness for binding parS DNA (scaled: cognate 1, non-cognate 0); higher = stronger binding
Conditions: with parS DNA site
Procedure, shortened: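 Bacterial one-hybrid selection in E. coli USO rpoZ- hisB- pyrF- with a HIS3 reporter carrying the site 19 bp from the promoter, screening Caulobacter ParB libraries with four specificity codons randomised (NNS). Cells grew 48 hours at 37°C on M9-minus-histidine plus 0.1 mM IPTG and 5 mM 3-AT. Plasmids before and after selection were Illumina-sequenced, three replicate libraries pooled, and variants under 10 reads dropped. Fitness is the log change in variant-to-wild-type read ratio, rescaled to cognate 1, non-cognate 0.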

Variant	one-hybrid fitness for binding parS DNA
PLLA	≤ 0.2
FTDL	≤ 0.2
TVVS	≤ 0.2
SKCT	≤ 0.2
ASKA	≤ 0.2
QYGC	≤ 0.2
SSCF	≤ 0.2
ISKC	≤ 0.2
PGKH	≤ 0.2
LRLS	≤ 0.2
NNDR	≤ 0.2
QAAC	≤ 0.2
IQPF	≤ 0.2
AWSD	≤ 0.2
GNLM	≤ 0.2
ILES	≤ 0.2
PWHS	≤ 0.2
EAIC	≤ 0.2
LDYL	≤ 0.2
QFNM	≤ 0.2
NWAG	≤ 0.2

Variant	one-hybrid fitness for binding parS DNA
ASEA	≤ 0.2
RYEF	0.236
LSQI	≤ 0.2
HNLM	≤ 0.2
QWMT	≤ 0.2
DHHF	≤ 0.2
DLRA	≤ 0.2
SDNR	≤ 0.2
LVGP	≤ 0.2
CGVG	≤ 0.2
YVMV	≤ 0.2
TSNT	≤ 0.2
KSMH	≤ 0.2
RSRE	≤ 0.2
TLWG	≤ 0.2
HAGS	≤ 0.2
HLSW	≤ 0.2
GVPY	≤ 0.2
MDCE	≤ 0.2
VGSM	≤ 0.2
SKEK	≤ 0.2

Variant	one-hybrid fitness for binding parS DNA
EFPC	≤ 0.2
PSRM	≤ 0.2
EQQS	≤ 0.2
RNTQ	≤ 0.2
TRGG	≤ 0.2
GILP	≤ 0.2
HYAR	≤ 0.2
QAHE	≤ 0.2
ASNL	≤ 0.2
QICR	≤ 0.2
GERF	≤ 0.2
AKRK	≤ 0.2
PQKL	≤ 0.2
QCRD	≤ 0.2
LMKG	≤ 0.2
YETE	≤ 0.2
MLDC	≤ 0.2
NIRD	≤ 0.2
PKFG	≤ 0.2
GRYC	≤ 0.2
RWRV	≤ 0.2

Variant	one-hybrid fitness for binding parS DNA
TCTC	≤ 0.2
AVNT	≤ 0.2
ILCC	≤ 0.2
MVVV	≤ 0.2
YGPS	≤ 0.2
DGKN	≤ 0.2
QVCL	≤ 0.2
CRKG	≤ 0.2
STTR	≤ 0.2
LPYD	≤ 0.2
GMCV	≤ 0.2
RDIV	≤ 0.2
RHEG	0.898
TKYL	≤ 0.2
PAHH	≤ 0.2
PHPD	≤ 0.2
ADSW	≤ 0.2
SNRA	≤ 0.2
RFEE	≤ 0.2
NDKG	≤ 0.2
KYIG	≤ 0.2
